Experimental data as given in the supplement of paper PMC4967469.

Columns and labels:
Assay in all cases: Viability of human cancer cell lines after 72 h of drug (GDSC screen)
5-Fluorouracil = compound: O=c1[nH]cc(F)c(=O)[nH]1 [5-Fluorouracil]; details: top dose 32 µM; top dose inferred
Experimental: (§1)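 Human cancer cell lines in 384-well plates, medium with 10% serum, drug for 72 h over a 256-fold dose range (nine 2-fold or five 4-fold steps up to the top dose). Adherent lines were fixed and stained with the nucleic acid dye Syto60, suspension lines read with resazurin; signal relative to control wells, capped at 0 and 100%. One two-parameter sigmoid per drug and line, fitted in a mixed model over all curves with the slope shared within a line.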

CUDC-101 = compound: C#Cc1cccc(Nc2ncnc3cc(OC)c(OCCCCCCC(=O)NO)cc23)c1 [CUDC-101]; details: top dose 5.12 µM; top dose inferred
Experimental: as §1

OSU-03012 = compound: NCC(=O)Nc1ccc(-n2nc(C(F)(F)F)cc2-c2ccc3c(ccc4ccccc43)c2)cc1 [OSU-03012]; details: top dose 16 µM; top dose inferred
Experimental: as §1

JNK-9L = compound: Fc1cc(-c2ccnc(Nc3ccc(-n4cnc(N5CCOCC5)n4)cc3)n2)cc(N2CCOCC2)c1 [JNK-9L]; details: top dose 5.12 µM; top dose inferred
Experimental: as §1

AC220 = compound: CC(C)(C)c1cc(NC(=O)Nc2ccc(-c3cn4c(n3)sc3cc(OCCN5CCOCC5)ccc34)cc2)no1 [AC220]; details: top dose 1.024 µM; top dose inferred
Experimental: as §1

RDEA119 = compound: COc1cc(F)c(F)c(Nc2ccc(I)cc2F)c1NS(=O)(=O)C1(C[C@H](O)CO)CC1 [RDEA119]; details: top dose 5 µM, top dose inferred
Experimental: as §1

QS11 = compound: OC[C@H](Cc1ccccc1)Nc1nc(Oc2ccc3c(c2)CCC3)nc2c1ncn2Cc1ccc(-c2ccccc2)cc1 [QS11]; details: top dose 10.24 µM
Experimental: as §1

Cell Line | AUC (5-Fluorouracil) | IC50 (5-Fluorouracil) | AUC (CUDC-101) | IC50 (CUDC-101) | AUC (OSU-03012) | IC50 (OSU-03012) | AUC (JNK-9L) | IC50 (JNK-9L) | AUC (AC220) | IC50 (AC220) | AUC (RDEA119; screen: GDSC drug entry 1014) | IC50 (RDEA119; screen: GDSC drug entry 1014) | AUC (RDEA119; screen: GDSC drug entry 1526) | IC50 (RDEA119; screen: GDSC drug entry 1526) | AUC (QS11) | IC50 (QS11)
HDLM-2 (Hodgkin lymphoma, suspension) | 0.989 | > 32 µM | 0.832 | 3.2 µM | 0.805 | 7.94 µM | 0.619 | 0.677 µM | 0.988 | > 1.02 µM | 0.981 | > 5 µM | 0.98 | > 5 µM | 0.982 | > 10.2 µM
HDQ-P1 (breast, adherent) | 0.745 | 11.7 µM | 0.578 | 0.545 µM | 0.759 | 6.59 µM | 0.752 | 2 µM | 0.985 | > 1.02 µM | 0.763 | 2.13 µM | 0.939 | > 5 µM | 0.976 | > 10.2 µM
HEC-1 (endometrium, adherent) | 0.989 | > 32 µM | 0.676 | 0.969 µM | 0.715 | 3.94 µM | 0.691 | 1.08 µM | 0.987 | > 1.02 µM | 0.948 | > 5 µM | 0.979 | > 5 µM | 0.958 | > 10.2 µM
HEL (acute myeloid leukaemia, semi-adherent) | 0.397 | 1.1 µM | 0.409 | 0.188 µM | 0.591 | 1.7 µM | 0.62 | 0.643 µM | 0.971 | > 1.02 µM | – | – | 0.991 | > 5 µM | 0.773 | 3.33 µM
HGC-27 (stomach, adherent) | 0.891 | – | 0.595 | 0.558 µM | 0.429 | 0.661 µM | 0.456 | 0.247 µM | 0.948 | > 1.02 µM | 0.99 | > 5 µM | 0.961 | > 5 µM | 0.712 | 2.28 µM
HH (T-cell leukaemia, suspension) | 0.646 | 5.8 µM | 0.494 | 0.306 µM | 0.708 | 4.75 µM | 0.523 | 0.376 µM | 0.944 | > 1.02 µM | 0.966 | > 5 µM | 0.913 | > 5 µM | 0.925 | > 10.2 µM
HLE (liver, adherent) | 0.909 | > 32 µM | 0.478 | 0.28 µM | 0.68 | 3.09 µM | 0.531 | 0.388 µM | 0.989 | > 1.02 µM | 0.943 | > 5 µM | 0.919 | > 5 µM | 0.84 | 6.48 µM
HMV-II (melanoma, adherent) | 0.854 | > 32 µM | 0.623 | 0.753 µM | 0.658 | 3.03 µM | 0.369 | 0.128 µM | 0.959 | > 1.02 µM | – | – | 0.539 | 0.409 µM | 0.797 | 6.12 µM
HN (head and neck, adherent) | 0.978 | > 32 µM | 0.752 | 1.6 µM | 0.6 | 1.84 µM | 0.845 | 3.35 µM | 0.988 | > 1.02 µM | 0.657 | 0.825 µM | 0.698 | 1.08 µM | 0.902 | > 10.2 µM
HO-1-N-1 (head and neck, adherent) | 0.912 | > 32 µM | 0.66 | 0.853 µM | 0.816 | 7.96 µM | 0.557 | 0.451 µM | 0.987 | > 1.02 µM | – | – | 0.715 | 1.19 µM | 0.986 | > 10.2 µM
HO-1-u-1 (head and neck, adherent) | 0.892 | > 32 µM | 0.614 | 0.648 µM | 0.745 | 4.85 µM | 0.564 | 0.475 µM | 0.988 | > 1.02 µM | 0.885 | > 5 µM | 0.945 | > 5 µM | 0.893 | > 10.2 µM
HOP-62 (lung adenocarcinoma, adherent) | 0.681 | 6.38 µM | 0.532 | 0.392 µM | 0.527 | 1.18 µM | 0.471 | 0.267 µM | 0.985 | > 1.02 µM | 0.699 | 1.13 µM | 0.757 | 1.72 µM | 0.727 | 2.82 µM
HOS (osteosarcoma, adherent) | 0.944 | > 32 µM | 0.992 | > 5.12 µM | 0.584 | 1.63 µM | 0.595 | 0.556 µM | 0.992 | > 1.02 µM | 0.923 | > 5 µM | 0.935 | > 5 µM | 0.723 | 2.41 µM
HPAC (pancreas, adherent) | 0.797 | 22.7 µM | 0.624 | 0.808 µM | 0.665 | 3.48 µM | 0.678 | 1.24 µM | 0.979 | > 1.02 µM | – | – | 0.867 | > 5 µM | 0.757 | 4.93 µM
HPAF-II (pancreas, adherent) | 0.91 | > 32 µM | 0.796 | 3.29 µM | 0.837 | 15.9 µM | 0.598 | 0.644 µM | 0.965 | > 1.02 µM | – | – | 0.631 | 0.805 µM | 0.857 | > 10.2 µM
HT55 (large intestine, adherent) | 0.984 | > 32 µM | 0.7 | 1.17 µM | 0.782 | 6.64 µM | 0.903 | > 5.12 µM | 0.99 | > 1.02 µM | 0.784 | 2.12 µM | 0.841 | 3.44 µM | 0.99 | > 10.2 µM
HT (B-cell lymphoma, suspension) | 0.786 | 12.6 µM | 0.295 | 0.0893 µM | 0.81 | 7.57 µM | 0.545 | 0.42 µM | 0.99 | > 1.02 µM | 0.99 | > 5 µM | 0.974 | > 5 µM | 0.94 | > 10.2 µM
HT-3 (cervix, adherent) | 0.874 | > 32 µM | 0.635 | 0.758 µM | 0.816 | 9.07 µM | 0.48 | 0.282 µM | 0.973 | > 1.02 µM | 0.839 | 3.49 µM | 0.878 | > 5 µM | 0.911 | > 10.2 µM

A lower IC50 marks a more sensitive line; a fit beyond the top or the lowest dose is shown as a bound at that dose. AUC sums up the same curve from the lowest dose to the 256-fold higher top dose; it is 1 without any effect and falls as sensitivity rises. For some of these results: Where the top dose is marked as inferred, it comes from the curve model; the source does not state it. For some of these results: Where an entry number is given, a second screen of the drug exists; the two often differ.
